{"source": "the supplement of paper PMC7335073", "note": "The full ranking holds about 4,100 sequences; the median of “relative CpG methylation activity (normalised to average over all NNNCGNNN flanks)” is about 0.94, and the highest 2% start at about 1.9. Some of the results follow."}
{"molecular_target": "DNMT3B catalytic domain (mouse) (UniProt O88509)", "sequence (O88509 558-859)": "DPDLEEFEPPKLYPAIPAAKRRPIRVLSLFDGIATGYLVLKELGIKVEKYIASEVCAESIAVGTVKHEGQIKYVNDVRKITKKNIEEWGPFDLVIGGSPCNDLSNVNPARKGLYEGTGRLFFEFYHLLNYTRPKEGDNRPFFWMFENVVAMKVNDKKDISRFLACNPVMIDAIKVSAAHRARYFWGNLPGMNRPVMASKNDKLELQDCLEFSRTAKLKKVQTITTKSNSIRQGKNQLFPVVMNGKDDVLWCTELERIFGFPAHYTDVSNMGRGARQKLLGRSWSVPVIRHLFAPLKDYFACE", "test": "relative CpG methylation activity (normalised to average over all NNNCGNNN flanks) (relative (1 = mean)); higher = more methylation of the central CpG", "details": "system: in vitro, murine catalytic domain; CpG state: hemimethylated substrate pool; residues: 558-859", "description": "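Deep enzymology: a pool of dsDNA substrates with a central CpG flanked by 10 random nucleotides on each side was methylated by the murine DNMT3A or DNMT3B catalytic domain (0.8 mM SAM, 37 °C, 60 min). Methylation was then read out by hairpin ligation, bisulfite conversion and NGS. Values are the average methylation of each NNNCGNNN context (±3 flanks; the outer flanks are random and averaged over), normalised to the overall mean, so 1 = average activity.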"}
{"sequence": "AACCGTTA", "relative CpG methylation activity": 0.238}
{"sequence": "GTGCGCAG", "relative CpG methylation activity": 0.503}
{"sequence": "AACCGCCG", "relative CpG methylation activity": 0.521}
{"sequence": "CGCCGTTC", "relative CpG methylation activity": 0.496}
{"sequence": "GGCCGGTT", "relative CpG methylation activity": 0.611}
{"sequence": "CAGCGCTA", "relative CpG methylation activity": 0.431}
{"sequence": "TCACGGAT", "relative CpG methylation activity": 1.1}
{"sequence": "CCTCGAAG", "relative CpG methylation activity": 1.07}
{"sequence": "GGGCGACT", "relative CpG methylation activity": 0.636}
{"sequence": "ACCCGGCC", "relative CpG methylation activity": 1.51}
{"sequence": "GCGCGCGC", "relative CpG methylation activity": 0.669}
{"sequence": "GATCGACT", "relative CpG methylation activity": 1.14}
{"sequence": "CTCCGGGT", "relative CpG methylation activity": 1.8}
{"sequence": "AGTCGCAC", "relative CpG methylation activity": 0.509}
{"sequence": "AGCCGCCC", "relative CpG methylation activity": 0.384}
{"sequence": "CATCGTAG", "relative CpG methylation activity": 0.429}
{"sequence": "AGTCGGCT", "relative CpG methylation activity": 1.79}
{"sequence": "TCCCGAGA", "relative CpG methylation activity": 1.74}
{"sequence": "GGACGTTG", "relative CpG methylation activity": 0.384}
{"sequence": "CTGCGGAT", "relative CpG methylation activity": 1.06}
{"sequence": "GAGCGAGT", "relative CpG methylation activity": 0.728}
{"sequence": "ACCCGGTG", "relative CpG methylation activity": 0.976}
{"sequence": "GGGCGCGT", "relative CpG methylation activity": 0.42}
{"sequence": "CGACGAAA", "relative CpG methylation activity": 1.04}
{"sequence": "TCTCGCAC", "relative CpG methylation activity": 0.805}
{"sequence": "ACGCGGAA", "relative CpG methylation activity": 0.651}
{"sequence": "CTTCGTGG", "relative CpG methylation activity": 0.188}
{"sequence": "CCCCGTCC", "relative CpG methylation activity": 1.32}
{"sequence": "TGACGTGT", "relative CpG methylation activity": 0.366}
{"sequence": "TTGCGACA", "relative CpG methylation activity": 1.15}
{"sequence": "GGTCGTCC", "relative CpG methylation activity": 0.737}
{"sequence": "GGCCGCTA", "relative CpG methylation activity": 0.382}
{"sequence": "GGTCGGTT", "relative CpG methylation activity": 1.03}
{"sequence": "ACCCGATC", "relative CpG methylation activity": 1.51}
{"sequence": "GCACGCGC", "relative CpG methylation activity": 1.04}
{"sequence": "CTGCGTCA", "relative CpG methylation activity": 0.944}
{"sequence": "CACCGGCA", "relative CpG methylation activity": 1.37}
{"sequence": "AGGCGGAC", "relative CpG methylation activity": 0.386}
{"sequence": "AGCCGAAA", "relative CpG methylation activity": 0.798}
{"sequence": "GTTCGACC", "relative CpG methylation activity": 1.32}
{"sequence": "CCTCGCTC", "relative CpG methylation activity": 1.01}
{"sequence": "AATCGACT", "relative CpG methylation activity": 1.44}
{"sequence": "ATACGTGC", "relative CpG methylation activity": 1.15}
{"sequence": "TTCCGTTG", "relative CpG methylation activity": 0.707}
{"sequence": "ACACGCGC", "relative CpG methylation activity": 1.26}
{"sequence": "AATCGTAG", "relative CpG methylation activity": 0.186}
{"sequence": "TAGCGCAG", "relative CpG methylation activity": 0.415}
{"sequence": "ACCCGCTA", "relative CpG methylation activity": 0.814}
{"sequence": "ACTCGAGA", "relative CpG methylation activity": 1.58}
{"sequence": "CTTCGTTT", "relative CpG methylation activity": 0.871}
{"sequence": "TCGCGAAC", "relative CpG methylation activity": 1.17}
{"sequence": "ACTCGGCG", "relative CpG methylation activity": 1.6}
{"sequence": "CGTCGTTC", "relative CpG methylation activity": 0.4}
{"sequence": "TACCGGTG", "relative CpG methylation activity": 0.974}
{"sequence": "GGGCGGTT", "relative CpG methylation activity": 0.79}
{"sequence": "CATCGATC", "relative CpG methylation activity": 1.81}
{"sequence": "TTTCGCGG", "relative CpG methylation activity": 0.884}
{"sequence": "TCGCGATC", "relative CpG methylation activity": 1.24}
{"sequence": "GGGCGCTT", "relative CpG methylation activity": 0.417}
{"sequence": "CCGCGGCA", "relative CpG methylation activity": 1.33}
{"sequence": "TCGCGGAT", "relative CpG methylation activity": 0.424}
{"sequence": "AAACGCCA", "relative CpG methylation activity": 1.4}
{"sequence": "TCGCGTCA", "relative CpG methylation activity": 0.847}
{"sequence": "TAACGAGG", "relative CpG methylation activity": 1.81}
{"sequence": "TGACGCAT", "relative CpG methylation activity": 0.608}
{"sequence": "TGTCGTGG", "relative CpG methylation activity": 0.105}
{"sequence": "CGGCGTCG", "relative CpG methylation activity": 0.355}
{"sequence": "GTTCGGGG", "relative CpG methylation activity": 1.24}
{"sequence": "CCCCGAAG", "relative CpG methylation activity": 1.07}
{"sequence": "TGGCGGCA", "relative CpG methylation activity": 1.4}
{"sequence": "ACGCGAGA", "relative CpG methylation activity": 1.31}
{"sequence": "TCACGATA", "relative CpG methylation activity": 1.76}
{"sequence": "CCTCGTTT", "relative CpG methylation activity": 0.376}
{"sequence": "ACTCGTTG", "relative CpG methylation activity": 0.336}
{"sequence": "TCCCGGAA", "relative CpG methylation activity": 0.933}
{"sequence": "GTTCGAAA", "relative CpG methylation activity": 1.31}
{"sequence": "ATACGGAA", "relative CpG methylation activity": 1.32}
{"sequence": "GGACGCTA", "relative CpG methylation activity": 0.637}
{"sequence": "GCCCGGTT", "relative CpG methylation activity": 1.26}
{"sequence": "ATGCGCGC", "relative CpG methylation activity": 0.877}
{"sequence": "TCCCGGTC", "relative CpG methylation activity": 1.6}
{"sequence": "GCCCGCTT", "relative CpG methylation activity": 0.882}
{"sequence": "TGCCGTAT", "relative CpG methylation activity": 0.262}
{"sequence": "ACACGGTC", "relative CpG methylation activity": 1.64}
{"sequence": "AGACGGAT", "relative CpG methylation activity": 0.732}
{"sequence": "GAACGCGA", "relative CpG methylation activity": 0.783}
